This is an account of results in PMC7819943, “Rice protein-binding microarrays: a tool to detect cis-acting elements near promoter regions in rice”.

Some of the results follow.

For the assay, the target named is T1, OsWOX13 (Oryza sativa, UniProt Q5QMM3 1-267).
T1 sequence: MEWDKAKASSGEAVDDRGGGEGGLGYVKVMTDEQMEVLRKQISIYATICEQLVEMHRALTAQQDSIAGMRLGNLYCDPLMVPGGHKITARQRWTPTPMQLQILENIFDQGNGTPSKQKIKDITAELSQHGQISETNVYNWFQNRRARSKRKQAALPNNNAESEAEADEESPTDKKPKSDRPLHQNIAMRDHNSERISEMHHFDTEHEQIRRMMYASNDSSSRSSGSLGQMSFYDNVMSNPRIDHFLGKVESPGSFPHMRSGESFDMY
Briefly: protein-binding microarray (RPBM); PBS, 2% BSA, 51.3 ng/ul salmon testes DNA, 50 uM zinc acetate, 200 nM TF, 25 C, 1 h; high values mean tight binding. The note with it: protein: recombinant; tags: N-terminal polyhistidine and DsRed monomer fusion (pET32a); label: CyDye5-dUTP incorporated in the synthesized complementary strand; 3' TTTTT single-stranded linker to array surface; dsDNA, one strand shown. Summed up:
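Binding signal is defined as the fluorescence intensity of each feature in arbitrary units, read on an Axon 4000B scanner. Transcription factors with N-terminal polyhistidine and DsRed fusions came from E. coli BL21-CodonPlus and were purified on Ni–NTA. They were incubated at 200 nM for 1 h at 25 °C on a custom Agilent array that had been made double-stranded with Cy5-dUTP, with 50 µM zinc acetate present, and the array was washed.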
“CTGGTTCTATAATAATTGATGTTTTAGATAAGATTGAAGTCGGAGTCACCTAGTGCAG”: the binding signal is 11200 fluorescence intensity (a.u.).

Take “ATGATTAGGCGTAGCCCTGGTCAAGCTGCATGTGGAGAGGCGGAGTCACCTAGTGCAG”: the binding signal is 7230 fluorescence intensity (a.u.).

“GAAGACTTAATTGGCGATTCTGCGCTAATCTCTCGCTTAACGGAGTCACCTAGTGCAG”: the binding signal was 28200 fluorescence intensity (a.u.).

Take “AATAGTAATTAGCTGGTAATCACATGGGCAAAGTTGTAAACGGAGTCACCTAGTGCAG”: the binding signal was 27300 fluorescence intensity (a.u.).

Regarding “AATTAGCTAATACTTAATTAATCACGTGCTAATGGATCACCGGAGTCACCTAGTGCAG”, the binding signal was 9830 fluorescence intensity (a.u.).

Turning to “AGCATCCAATCAAACCCAGCAGATTATGGATGGGTTTATCCGGAGTCACCTAGTGCAG”, the binding signal is 26800 fluorescence intensity (a.u.).

“ATAAATTTAGGATAAGAAAATTACTCAGGTAGGAGTAATACGGAGTCACCTAGTGCAG”: the binding signal was 3250 fluorescence intensity (a.u.).

Take “CTTGATTGCCTTCAATATCAAGATGTTCAAGAAGTGATTTCGGAGTCACCTAGTGCAG”: the binding signal was 39800 fluorescence intensity (a.u.).

For the sequence “TCGCCGTTAATTGCATAATAATCTGGACAAGTGATGCCTACGGAGTCACCTAGTGCAG”, the binding signal is 33800 fluorescence intensity (a.u.).

As to “ATCCATGTAAATTAACTCATCCAATGTGACAGCACGACGCCGGAGTCACCTAGTGCAG”, the binding signal is 8800 fluorescence intensity (a.u.).

On to “AGATTATATCTAACAGCTAATTGAATTTATTGTGTCATGACGGAGTCACCTAGTGCAG”, for which the binding signal is 8570 fluorescence intensity (a.u.).

As to “ATTTAATTTCTTGGACAGCAATGATGGAGTTCATAGAGCTCGGAGTCACCTAGTGCAG”, the binding signal was 18900 fluorescence intensity (a.u.).

With “CACTGATTTCTTTATAAATGCAATTGGAAATTAGTACTATCGGAGTCACCTAGTGCAG”, the binding signal is 15900 fluorescence intensity (a.u.).

“CATATCAAATCAACTAAATTTATAAATGTAATTTTAGTTACGGAGTCACCTAGTGCAG”: the binding signal was 9970 fluorescence intensity (a.u.).

Consider “TTCGTAAATTTGATCGAATTTGGCTTTTAGACGCTGGACACGGAGTCACCTAGTGCAG”, for which the binding signal was 19200 fluorescence intensity (a.u.).

With “TTTTGTTAATTGTTTCCCCTTTTGTTTGGTTTTGATGTTTCGGAGTCACCTAGTGCAG”, the binding signal was 28700 fluorescence intensity (a.u.).

On to “GTTTAAATTGCATATGTAGTATGTTTAGCATTAAACCGTTCGGAGTCACCTAGTGCAG”, for which the binding signal is 13900 fluorescence intensity (a.u.).

On to “TTGCAATCACCGAACAAGGTTATGCATAATGCAAACATTGCGGAGTCACCTAGTGCAG”, for which the binding signal is 5470 fluorescence intensity (a.u.).

For the sequence “CAGAAACATCACCAATCACTAAACAAGTAGCAGGACATCTCGGAGTCACCTAGTGCAG”, the binding signal is 10500 fluorescence intensity (a.u.).

With “ATTATTAAACGTAGACTAATTAGAATTATTAAACGTAGACCGGAGTCACCTAGTGCAG”, the binding signal was 17800 fluorescence intensity (a.u.).

As to “CTTTATAATTTATATTCCTAATGTTTGACTTAAACATTGTCGGAGTCACCTAGTGCAG”, the binding signal is 17000 fluorescence intensity (a.u.).

Turning to “GACCAAGAAATAATTATTATCACATTATAGTTTGGATTACCGGAGTCACCTAGTGCAG”, the binding signal is 4840 fluorescence intensity (a.u.).

For “GCCTTAATCTAATGATCAGTCAAAACATAGTCTAATTTGGCGGAGTCACCTAGTGCAG”, the binding signal is 15000 fluorescence intensity (a.u.).

As for “TGTGACGTCAATTTATCATCTATTTCATGGAGCAAACTTGCGGAGTCACCTAGTGCAG”, the binding signal is 21900 fluorescence intensity (a.u.).

As for “CTGATTACTAAATGGGCCGCATCATGAGTTTTGTTTTAATCGGAGTCACCTAGTGCAG”, the binding signal is 17700 fluorescence intensity (a.u.).

As for “AGATATATAAGATTGATCTCCCACACCACACCACAGCACTCGGAGTCACCTAGTGCAG”, the binding signal is 3190 fluorescence intensity (a.u.).

On to “TTTCAGTGGTCCAATCAACGCTGCAGGCCACTGCACTGTGCGGAGTCACCTAGTGCAG”, for which the binding signal was 4700 fluorescence intensity (a.u.).

Turning to “TAGCTGATTATCATGTGTTTGTTAGCAGGTCCAACATCCCCGGAGTCACCTAGTGCAG”, the binding signal is 39000 fluorescence intensity (a.u.).

Take “TCCTTGCTAACAAATCAACCAATTTGTCCATTCCCTATGTCGGAGTCACCTAGTGCAG”: the binding signal was 3440 fluorescence intensity (a.u.).

Turning to “CATAACTCAATCACCGTGAGCACTGCAAGAGAGTTGTGCGCGGAGTCACCTAGTGCAG”, the binding signal was 16600 fluorescence intensity (a.u.).

As for “ATTTAGACATATCAATGAAATGCTGTTGATCAAGTTTCTACGGAGTCACCTAGTGCAG”, the binding signal is 3810 fluorescence intensity (a.u.).

Turning to “ATCCAAATAAATTGGCCTATTAGCTCAGCTGGTTAGAGCGCGGAGTCACCTAGTGCAG”, the binding signal was 20000 fluorescence intensity (a.u.).

On to “TTTCTTTTAAATTACTTATCCAAATCATGATCCGGTTGCACGGAGTCACCTAGTGCAG”, for which the binding signal is 5900 fluorescence intensity (a.u.).

Turning to “TGCTAGCTAGCATAATTGACTTGCTACTATATATATGAACCGGAGTCACCTAGTGCAG”, the binding signal was 3310 fluorescence intensity (a.u.).

Take “ACATAATGGGCCAAATGACACAAGCCATTTTGACGTGCGTCGGAGTCACCTAGTGCAG”: the binding signal is 5510 fluorescence intensity (a.u.).

Regarding “GACCAGATTGGTATTGTTGAGTTAAATCATATATTTACCCCGGAGTCACCTAGTGCAG”, the binding signal is 19600 fluorescence intensity (a.u.).

Take “AGCATGATGCCCATCAGAGGTTGATTGGTCCCTGCACAAACGGAGTCACCTAGTGCAG”: the binding signal is 14900 fluorescence intensity (a.u.).

Take “CAGTGGATTGATGTATTATTGTCATCCAAATCATGCCATTCGGAGTCACCTAGTGCAG”: the binding signal is 47700 fluorescence intensity (a.u.).

“GTGATTGAGGCCCTGTTCAGATGGGAAACTTTTAAGTCCCCGGAGTCACCTAGTGCAG”: the binding signal is 35800 fluorescence intensity (a.u.).

On to “AGAAAATTGAGGTTTATTTATTTAATATCGTTCATGTAATCGGAGTCACCTAGTGCAG”, for which the binding signal is 10100 fluorescence intensity (a.u.).

“CTTAATTTATGCTATTTTAGGCAATAATACCTTATATACCCGGAGTCACCTAGTGCAG”: the binding signal is 24100 fluorescence intensity (a.u.).

Take “ATTAATGTTAAATTTAATGAAACTAATTTGATATTATAAACGGAGTCACCTAGTGCAG”: the binding signal is 9540 fluorescence intensity (a.u.).
